From ChEMBL document CHEMBL4888484, “Replenishing the malaria drug discovery pipeline: Screening and hit evaluation of the MMV Hit Generation Library 1 (HGL1) against asexual blood stage Plasmodium falciparum ,using a nano luciferase reporter read-out” (2022)
Hit rate of the full screen: of about 150,000 compounds, about 540 (0.36%) showed an effect of 50% or more. This is one part of the list.

test system: Plasmodium falciparum; experiment: Primary screen in NF54 nanoGlo assay, in single point, at 2uM, 72h; a lower Z score goes with more inhibition; assay type: functional, Erythrocyte; settings: timepoint 72 hour

Question: How did the “% Inhibition” value turn out when `O=C(N[C@H](c1ccccn1)C(F)(F)F)c1cnn[nH]1` was run?
Answer: Its value is 2%.

Question: And the Z score?
Answer: The Z score was -0.37.

Question: What does the source list for `CCNC(=NCCc1cccc(OC)n1)NCC`?
Answer: % Inhibition: -1%; Z score: 0.07

Question: For `O=C(O)c1cc(S(=O)(=O)Nc2cccc3c2CCCC3)c[nH]1`, which “% Inhibition” value is on record?
Answer: Its value is -2%.

Question: What about the Z score of the same compound?
Answer: The Z score was 0.48.

Question: Which results are given for `O=C(NCc1cnc2n1CCCC2)[C@H]1CCO[C@@H]1c1cccnc1`?
Answer: % Inhibition: 0%; Z score: 0.01

Question: How did the “% Inhibition” value turn out when `CN1CC2(CCN(Cc3ccccn3)CC2)C[C@@H](c2ccccc2)C1=O` was run?
Answer: Its value is 2%.

Question: What about the Z score of the same compound?
Answer: Its Z score is -0.45.

Question: How did the “% Inhibition” value turn out when `O=C(NCc1ccccc1C(F)(F)F)C1CCN(c2cnc3nccnc3c2)CC1` was run?
Answer: Its value is -2%.

Question: And the Z score?
Answer: The Z score was 0.3.

Question: With `COc1ccc(C(=O)NS(C)(=O)=O)cc1OC` as the compound, how does the “% Inhibition” value read?
Answer: The value was 4%.

Question: What about the Z score of the same compound?
Answer: The Z score was -0.58.

Question: Which results are given for `O=C(N[C@H]1COCC[C@@H]1O)c1cncc(Cl)c1`?
Answer: % Inhibition: -6%; Z score: 0.98

Question: What does the source list for `Nc1nc(NS(=O)(=O)c2ccccc2)cc2ncnn12`?
Answer: % Inhibition: -33%; Z score: 3.85

Question: How did the “% Inhibition” value turn out when `COC(=O)C1CCN(C(=O)CN2CCCc3c(F)ccc(C)c32)CC1` was run?
Answer: The value was 3%.

Question: What about the Z score of the same compound?
Answer: The Z score was -0.41.

Question: Which “% Inhibition” value does the source give for `Fc1ccccc1CNC1C2CCOC2C12CCC2` (centres undefined) here?
Answer: Its value is -13%.

Question: And the Z score?
Answer: The Z score was 1.51.

Question: How did the “% Inhibition” value turn out when `Cc1c(Cl)cccc1NC(=O)CCNc1ccc(C#N)nc1` was run?
Answer: The value was -21%.

Question: And the Z score?
Answer: The Z score was 2.73.

Question: How did the “% Inhibition” value turn out when `Cn1cc([C@]2(CNC(=O)C3(O)Cc4ccccc4C3)CCCO2)cn1` was run?
Answer: Its value is -9%.

Question: And the Z score?
Answer: The Z score was 1.56.

Question: How did the “% Inhibition” value turn out when `COc1cccc(C2CN(C(=O)c3ccc4c(c3)OCO4)CC2C(=O)NCC(C)C)c1OC` (centres undefined) was run?
Answer: Its value is -8%.

Question: And the Z score?
Answer: The Z score was 0.85.

Question: Which results are given for `Cc1noc(CN2CC[C@@]3(CCCN(C4CCCCC4)C3=O)C2)n1`?
Answer: % Inhibition: 9%; Z score: -1.17

Question: Which results are given for `COc1cccnc1NC(=O)[C@@H](C)Cn1ncc2ccccc21`?
Answer: % Inhibition: 4%; Z score: -0.51

Question: Which “% Inhibition” value does the source give for `CCCc1[nH]nc(-c2cc(OC)ccc2OC)c1NC(=O)c1ccc2c(c1)OCO2` here?
Answer: Its value is -12%.

Question: What about the Z score of the same compound?
Answer: The Z score was 1.67.

Question: What does the source list for `O=C(CN1CCOCC1)Nc1ccccc1-c1ccccc1`?
Answer: % Inhibition: -1%; Z score: 0.15

Question: Which results are given for `CC[C@H](NC(=O)CNC(=O)c1cccc(F)c1)c1nc(C)n[nH]1`?
Answer: % Inhibition: 2%; Z score: -0.26

Question: Which “% Inhibition” value does the source give for `CCn1cncc1[C@@H]1CCCCN1C(=O)C12CC(C1)C2` here?
Answer: The value was 1%.

Question: And the Z score?
Answer: Its Z score is -0.16.

Question: For `Cc1cc(CNC(=O)c2cnccn2)no1`, which “% Inhibition” value is on record?
Answer: The value was 9%.

Question: And the Z score?
Answer: The Z score was -1.19.

Question: For `CCC[C@@]1(C)CCCN(c2cnc(C#N)cn2)C1`, which “% Inhibition” value is on record?
Answer: The value was 4%.

Question: What about the Z score of the same compound?
Answer: The Z score was -0.76.

Question: What does the source list for `CCc1noc(C)c1NC(=O)N1CCC[C@]1(C)Cc1cccc(F)c1`?
Answer: % Inhibition: -3%; Z score: 0.56

Question: With `C[C@H]1C(=O)N(c2ccccc2-c2ccccc2)CCN1C(=O)c1ccc(Cl)cc1` as the compound, how does the “% Inhibition” value read?
Answer: The value was -4%.

Question: What about the Z score of the same compound?
Answer: The Z score was 0.62.

Question: Which results are given for `O=C1C[C@]2(CCN(c3nc(-c4ccccc4)no3)C2)C(=O)N1`?
Answer: % Inhibition: -24%; Z score: 3.05

Question: What does the source list for `COc1ccc(CN2C(=O)COC[C@H]2C(=O)NCc2ccc(F)cc2)c(OC)c1`?
Answer: % Inhibition: -3%; Z score: 0.49

Question: How did the “% Inhibition” value turn out when `CCn1nc(C(=O)N2CCC(c3cc(N4CCCC4)ncn3)CC2)cc1C` was run?
Answer: Its value is -10%.

Question: And the Z score?
Answer: The Z score was 1.4.

Question: Which “% Inhibition” value does the source give for `Fc1cccc2c1CN(c1nc(C3CCOCC3)no1)CCO2` here?
Answer: The value was 3%.

Question: What about the Z score of the same compound?
Answer: Its Z score is -0.43.

Question: What does the source list for `CCn1ncc(C(=O)Nc2n[nH]cc2Cl)c1C`?
Answer: % Inhibition: -8%; Z score: 1.62

Question: For `CC1CN(CCN(C)CCN2CC(C)OCC2C)C(C)CO1` (centres undefined), which “% Inhibition” value is on record?
Answer: Its value is 1%.

Question: And the Z score?
Answer: Its Z score is -0.12.

Question: For `Cc1ccc(NC(=O)N2CCC(N(CCC(C)C)C3CCOCC3)CC2)cc1F`, which “% Inhibition” value is on record?
Answer: The value was -7%.

Question: And the Z score?
Answer: The Z score was 1.28.

Question: What does the source list for `Cn1cc([C@H]2CN(C(=O)c3n[nH]c4c3CCC4)C[C@H]2CC(=O)O)nn1`?
Answer: % Inhibition: -6%; Z score: 0.64

Question: `Cc1cccc(C(=O)N(Cc2csc(COc3ccc(Cl)cc3)n2)C2CC2)c1` was tested. Which “% Inhibition” value did it give?
Answer: Its value is -12%.

Question: What about the Z score of the same compound?
Answer: The Z score was 1.43.

Question: Which “% Inhibition” value does the source give for `CC1CCN(C(=O)CN(C)c2cc(C(C)C)[nH]n2)CC1` here?
Answer: The value was -10%.

Question: What about the Z score of the same compound?
Answer: Its Z score is 1.97.

Question: Which “% Inhibition” value does the source give for `O=C(Nc1ccc(C(=O)N2CCOCC2)c(F)c1)c1ccccn1` here?
Answer: Its value is -1%.

Question: And the Z score?
Answer: Its Z score is 0.17.

Question: What does the source list for `CS(=O)(=O)N1CCN(c2ncnc3c2CCC3)CC1`?
Answer: % Inhibition: 1%; Z score: -0.08

Question: What does the source list for `O=C(CCc1c[nH]c2ccccc12)N[C@H]1CCc2nn(CC3CC3)c(=O)n2CC1`?
Answer: % Inhibition: -8%; Z score: 1.3

Question: How did the “% Inhibition” value turn out when `CCNC(=O)N1CCC(NC(c2ccccc2)C2CC2)C1` (centres undefined) was run?
Answer: Its value is -18%.

Question: What about the Z score of the same compound?
Answer: Its Z score is 2.57.

Question: Which “% Inhibition” value does the source give for `CCCN(Cc1ccsc1)C(=O)[C@@H]1CC[C@H](C(=O)O)C1` here?
Answer: Its value is -10%.

Question: What about the Z score of the same compound?
Answer: The Z score was 1.37.

Question: Which results are given for `COc1cccc(CNC(=O)c2nnc(C(=O)Nc3ccc(F)cc3)s2)c1`?
Answer: % Inhibition: -18%; Z score: 1.62

Question: For `CN(C[C@H]1CCCCO1)C(=O)c1cccc(S(=O)(=O)N2CCC2)c1`, which “% Inhibition” value is on record?
Answer: The value was -16%.

Question: And the Z score?
Answer: The Z score was 1.74.

Question: With `COc1ccc(CN(Cc2ccc(F)cc2)Cc2nc(C(=O)N3CCN(c4ccccc4C)CC3)cs2)cc1` as the compound, how does the “% Inhibition” value read?
Answer: The value was -14%.

Question: And the Z score?
Answer: The Z score was 1.38.
